Assay results reported in the antibiotic and cytotoxicity screens of Wong et al. (2023).
The other results are listed elsewhere or left out.

Assays:
HSkMC = human skeletal muscle cells; assay: cytotoxicity call (relative viability < 0.9); conditions: 10 µM
HepG2 = assay: cytotoxicity call (relative viability < 0.9); conditions: 10 µM
S. aureus RN4220 = assay: growth inhibition call (relative growth <= 0.2); conditions: 50 µM

C[C@H]1CN([C@@H](C)CO)C(=O)c2cccc(NC(=O)CCCCCC(=O)Nc3ccccc3N)c2O[C@@H]1CN(C)Cc1ccc(C(F)(F)F)cc1
inactive: cytotoxicity call (HSkMC) | cytotoxicity call (HepG2) | growth inhibition call (S. aureus RN4220)

Cc1cc(-c2nnc(N)o2)nn1C
inactive: cytotoxicity call (HSkMC) | cytotoxicity call (HepG2) | growth inhibition call (S. aureus RN4220)

C[C@H](CO)N1C[C@H](C)[C@@H](CN(C)Cc2ccccc2)OCCCC[C@H](C)Oc2ccc(NC(=O)c3ccncc3)cc2C1=O
inactive: cytotoxicity call (HSkMC) | cytotoxicity call (HepG2) | growth inhibition call (S. aureus RN4220)

Cc1ccccc1-c1ccc2c(c1)O[C@H](CN(C)C(=O)Nc1ccc(C(F)(F)F)cc1)[C@H](C)CN([C@H](C)CO)S2(=O)=O
inactive: cytotoxicity call (HSkMC) | cytotoxicity call (HepG2) | growth inhibition call (S. aureus RN4220)

Cc1cc(C(=O)Nc2cccc3c2O[C@@H](CN(C)Cc2ccc4c(c2)OCO4)[C@H](C)CN([C@@H](C)CO)C3=O)n(C)n1
inactive: cytotoxicity call (HSkMC) | cytotoxicity call (HepG2) | growth inhibition call (S. aureus RN4220)

C[C@@H]1CCCCO[C@@H](CN(C)C(=O)Nc2ccc(C(F)(F)F)cc2)[C@@H](C)CN([C@H](C)CO)C(=O)c2cc(NC(=O)Nc3ccc(F)cc3)ccc2O1
inactive: cytotoxicity call (HSkMC) | cytotoxicity call (HepG2) | growth inhibition call (S. aureus RN4220)

C[C@H](CO)N1C[C@H](C)[C@@H](CN(C)Cc2ccc(C(F)(F)F)cc2)Oc2ccc(NS(C)(=O)=O)cc2C1=O
inactive: cytotoxicity call (HSkMC) | cytotoxicity call (HepG2) | growth inhibition call (S. aureus RN4220)
